From PubChem BioAssay AID624417 (National Center for Advancing Translational Sciences (NCATS), 2012)
In all, about 410,000 compounds went through this assay and about 6,400 (1.6%) were called active. Inconclusive results, whose numbers are uncertain, are shown with a selection of clear calls. Calls follow the shape of the dose curve; as a rule, active = well fitted inhibition curve with a large enough effect; inconclusive = small, poorly fitted or top-dose-only effect; inactive = no such curve, though single readings can be large or run the other way. Potencies of inconclusive entries are left out as doubtful fits.
Also: nearly all actives have a fitted effect of over 55% in size.
Potency is read from the fitted curve at half-maximal effect; tags tell the direction and shape of the fitted curve.

The molecules below were run against Glucagon-like peptide 1 receptor (Homo sapiens) (UniProt P43220) (assay: qHTS of GLP-1 Receptor Inverse Agonists (Inhibition Mode)). Conditions: HEK293 GLP-1R CRE-luciferase, luminescence, 24 h, GLP-1R form is constitutively active; series mostly up to 38.3 µM.
Chain of UniProt P43220 (P43220 whole entry, looked up): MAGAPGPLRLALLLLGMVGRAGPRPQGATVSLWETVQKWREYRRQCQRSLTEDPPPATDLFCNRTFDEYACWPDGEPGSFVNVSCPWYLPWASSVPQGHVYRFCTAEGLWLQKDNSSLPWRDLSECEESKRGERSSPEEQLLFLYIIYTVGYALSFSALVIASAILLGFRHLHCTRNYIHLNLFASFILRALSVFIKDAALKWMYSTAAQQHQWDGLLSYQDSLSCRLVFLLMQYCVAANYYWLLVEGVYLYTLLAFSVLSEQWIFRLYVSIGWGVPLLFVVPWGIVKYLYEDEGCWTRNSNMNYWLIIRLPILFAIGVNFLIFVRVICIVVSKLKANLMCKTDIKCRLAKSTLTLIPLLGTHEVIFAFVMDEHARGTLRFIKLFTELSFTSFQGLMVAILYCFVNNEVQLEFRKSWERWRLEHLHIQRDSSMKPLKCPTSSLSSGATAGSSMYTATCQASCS
Outline: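 Luminescence readout: a drop in cAMP-driven luciferase signal flags inverse agonism at a constitutively active GLP-1R stably expressed in HEK293. Compound exposure lasted 24 hr at 37 deg C, 5% CO2.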
For `COc1ccc(NC(=O)CN(C)CC(=O)NCC2CCCCC2)cc1`, the Potency was inconclusive [inhibitor, single point].
`OC(CN1CCNCC1)Cn1c2ccccc2c2ccccc21` (stereo unspecified) was tested, and the Potency was inconclusive [inhibitor, partial curve, poor fit].
For `CC(NC(=O)CSCc1ccccc1Br)c1ccccc1` (stereo unspecified), the Potency was inconclusive [inhibitor, single point].
`CCOc1ccc2nc(SCC(=O)NCc3ccco3)sc2c1` was tested, and the Potency was inconclusive [inhibitor, single point].
In the case of `CCOC(=O)CC1COCCN1C(=O)c1cc(COc2ccc(F)c(F)c2)on1` (stereo unspecified), the Potency is reported as inconclusive [inhibitor, single point].
For `CSc1nc(=O)c2c(n1C)NC(=O)CC2c1cc(F)cc(F)c1` (stereo unspecified), the Potency was “inactive”.
With `C=C1c2cccc(OC)c2O[C@H](C(=O)OCC)[C@@H]1CCCCCC` the Potency was inconclusive [inhibitor, single point].
In the case of `COc1cc(C(=O)N2CCN(C/C=C/c3ccccc3)CC2)cc(OC)c1C`, the Potency is reported as inconclusive [inhibitor, single point].
With `Cc1ccc2nc(Cl)c3cc(C(=O)NCCCN(C)Cc4ccccc4)sc3c2c1` the Potency was “inactive”.
For `CCCOc1ccc2c(c1)C(=NN=C(N)N)c1cc(OCCC)ccc1-2`, the Potency was active: 1.78 µM.
`Cc1cc2nc(-c3cccc(Br)c3)c(Cc3ccccc3)n2c(C)c1Br` was tested, and the Potency was inconclusive [inhibitor, single point].
With `COc1ccccc1CN(C)CC(=O)Nc1ccc(Cl)cc1C(F)(F)F` the Potency was inconclusive [inhibitor, single point].
With `N#CC(C#N)=C1C=C2C=C(N3CCOCC3)CCC2CC1` (stereo unspecified) the Potency was “inactive”.
For `Cc1nc2c(OCc3ccc(C(F)(F)F)cc3)cccn2c1N(C)CC1CC1`, the Potency was inconclusive [inhibitor, single point].
In the case of `COc1ccc(C)cc1S(=O)(=O)Nc1cccc(SC)c1`, the Potency is reported as inconclusive [inhibitor, single point].
In the case of `O=C1NC(=Nc2ccc(O)cc2)S/C1=C/c1ccco1`, the Potency is reported as inconclusive [inhibitor, partial curve, poor fit].
`CCOC(CCn1c(SCc2cccc([N+](=O)[O-])c2)nc2ccccc2c1=O)OCC` was tested, and the Potency was inconclusive [inhibitor, partial curve, poor fit].
`O=C(c1cc2n(n1)C(C(F)(F)F)CC(c1ccco1)N2)N1CCc2ccccc2C1` (stereo unspecified) was tested, and the Potency was inconclusive [inhibitor, partial curve, poor fit].
`CCOC(=O)Cc1c(C)c2c(C)nn(-c3ccccc3)c2oc1=O` was tested, and the Potency was “inactive”.
In the case of `Cc1nc(N=C(N)N)nc2c(C)cccc12`, the Potency is reported as inconclusive [inhibitor, single point].
For `CCOc1ccc(Nc2oc(Cc3ccccc3)nc2C#N)cc1`, the Potency was inconclusive [inhibitor, single point].
With `CCCCN(CC)S(=O)(=O)c1ccc(C(=O)N(CCCN(C)C)c2nc3cc(C)cc(C)c3s2)cc1` the Potency was inconclusive [inhibitor, single point].
With `O=C(c1c(F)c(F)c(F)c(F)c1F)N1CCN(Cc2ccc3c(c2)OCO3)CC1` the Potency was inconclusive [inhibitor, partial curve, poor fit].
With `CCC(C)(C)C1CCc2[nH]nc(C(=O)NC3CCCC3)c2C1` (stereo unspecified) the Potency was inconclusive [inhibitor, full curve, poor fit].
For `Cc1ccc(NC(=O)C2(C)CCN2C(=O)Cc2ccc(C(C)(C)C)cc2)cc1C` (stereo unspecified), the Potency was inconclusive [inhibitor, partial curve, poor fit].
With `CCNc1nc(N)c(C(=O)c2ccc(Cl)s2)s1` the Potency was inconclusive [inhibitor, full curve, poor fit].
With `O=C(CCSCc1ccc(Cl)cc1)NCc1ccc(F)cc1Cl` the Potency was inconclusive [inhibitor, single point].
In the case of `CN1CCN(C(=O)Cn2ncc3c4ccccc4n(Cc4ccc(Cl)cc4)c3c2=O)CC1`, the Potency is reported as inconclusive [inhibitor, partial curve, poor fit].
For `Cc1cc(C)c(NC(=O)c2c(C)nn(-c3ccc(F)cc3)c2-n2cccc2)c(C)c1`, the Potency was inconclusive [inhibitor, partial curve, poor fit].
`CCOC(=O)N/N=C/c1cn(CCCOc2ccc(C)cc2)c2ccccc12` was tested, and the Potency was inconclusive [inhibitor, partial curve].
`O=C(CSc1nccn1Cc1ccc(F)cc1)NCc1ccc(F)cc1` was tested, and the Potency was inconclusive [inhibitor, single point].
In the case of `CCN(CCNC(=O)Cn1cc2c(n1)CCCC2)c1ccccc1`, the Potency is reported as inconclusive [inhibitor, single point].
In the case of `O=C(COc1ccc(Br)cc1CNC1CCCCC1)NCCc1ccccc1`, the Potency is reported as inconclusive [inhibitor, partial curve, poor fit].
`C#C[C@]1(O)CCC2C3CCC4=CC(=O)CC[C@@H]4C3CC[C@@]21C` (stereo partly specified) was tested, and the Potency was “inactive”.
In the case of `CSc1ncnc2c1ncn2CCCN(C)Cc1ccco1`, the Potency is reported as “inactive”.
For `Cc1onc(-c2ccccc2)c1C(=O)NC(C)c1ccccc1` (stereo unspecified), the Potency was “inactive”.
`Cc1cc(C(=O)COc2ccccc2Cl)c(C)n1C1CC1` was tested, and the Potency was inconclusive [inhibitor, partial curve, poor fit].
For `COc1cccc2sc(N(CCCN(C)C)C(=O)c3sc4ccccc4c3Cl)nc12`, the Potency was inconclusive [inhibitor, single point].
For `O=C(C1CCN(Cc2ccccc2O)CC1)N1CCN(Cc2ccc3c(c2)OCO3)CC1`, the Potency was inconclusive [inhibitor, partial curve, poor fit].
In the case of `Cc1ccc(C(C[N+](=O)[O-])c2c(C)cc3ccccn23)cc1` (stereo unspecified), the Potency is reported as inconclusive [inhibitor, single point].
In the case of `CCOC(=O)c1sc2ccccc2c1S(=O)(=O)N1CCN(c2cc(C)ccc2C)CC1`, the Potency is reported as inconclusive [inhibitor, single point].
